Results taken from PubChem BioAssay AID602293 (National Center for Advancing Translational Sciences (NCATS), 2012).
Hit rate of the full screen: of about 1,300 compounds, about 30 (2%) were called active. Roughly 10% stayed inconclusive and do not appear here. The call rests on the fitted dose curve; in most records, active means well fitted inhibition curve with a large enough effect; inconclusive means small, poorly fitted or top-dose-only effect; inactive means flat fitted curve, though single readings scatter. This is one part of the list.

experiment: qHTS for antagonists of the Thyroid Stimulation Hormone Receptor: Hit Validation in HTRF Activity in a Luteinizing Hormone Receptor Cell Line; conditions: LHR-expressing cell line, cAMP HTRF, antagonist mode; series mostly up to 58 µM; activity change, negative = inhibition: at the top concentration
How it was run: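 HEK 293 cells stably expressing LH receptor, in DMEM with 10% FCS and 100 uM RO 20-1724, incubated with compound 30 min at room temperature. cAMP measured by competitive HTRF (anti-cAMP cryptate vs cAMP-d2), excitation 330 nm, emissions 615 and 660 nm.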
On the % scale 0 is the no-effect control and ±100 the full control effect; potency means the concentration at half of the fitted maximal effect.

Structure (SMILES)	activity change, negative = inhibition	Potency
Cc1nn(-c2ccccc2)c(C)c1NC(=O)COc1ccc(Br)cc1Cl	inactive: -4.2%	
Cc1cccc(N2CCN(S(=O)(=O)c3ccc4c(c3)NC(=O)CS4)CC2)c1C	inactive: -1.48%	
O=[N+]([O-])c1ccc(N=Nc2c(Cl)cc(O)cc2Cl)cc1	inactive: -4.86%	
COc1ccc(C(=O)N2CCN(c3ccc([N+](=O)[O-])c(NCCc4ccc(OC)c(OC)c4)c3)CC2)cc1	inactive: -8.33%	
COc1ccc(Cc2nc(-c3ccc(-n4cccc4)cc3)no2)cc1OC	inactive: -3.5%	
Cc1ccccc1NC(=O)C1C2CCCCC21 (stereo not drawn)	inactive: 0.0637%	
O=C(OCc1cc(Cl)ccc1OC(F)F)c1cncc(Br)c1	inactive: -2.59%	
CCN(c1ccccc1)S(=O)(=O)c1ccc(NC(=O)c2nc(S(C)(=O)=O)ncc2Cl)cc1		active: 33.8 µM
CC1CCCC(NC(=O)CN2C(=O)COc3ccccc32)C1C (stereo not drawn)	inactive: 0.207%	
CC(C)Nc1nc(SC(C)C(=O)Nc2ccccc2)nc(N(C)C)n1 (stereo not drawn)	inactive: -0.795%	
CCOC(=O)c1cccc(OCC(O)CNCCOc2ccccc2F)c1 (stereo not drawn)	inactive: 1.06%	
Cc1ccc(S(=O)(=O)N2CCN(C(=O)Cc3ccsc3)CC2)c(C)c1	inactive: 3.65%	
CC(=O)NC12CC3CC(C1)CC(C(=O)OCC(=O)c1ccc4c(c1)OCCO4)(C3)C2	inactive: 1.63%	
CC1CC(C)CN(CCCNC(=O)CN2C(=O)COc3ccc(S(=O)(=O)N4CCOCC4)cc32)C1 (stereo not drawn)	inactive: 0.256%	
Cc1ccc(Nc2nc(N3CCOCC3)nc(N3CCOCC3)n2)cc1Cl	inactive: -0.121%	
CCCc1nnc(NC(=O)c2nc(S(=O)(=O)Cc3cccc(C)c3)ncc2Cl)s1	inactive: -2.86%	
O=C(c1ccco1)N1CCN(c2ncnc3c2nnn3Cc2ccccc2Cl)CC1	inactive: -2.54%	
COC(=O)CSc1nc(-c2ccccc2)cc(-c2ccco2)c1C#N	inactive: -0.177%	
O=C(O)c1nn(CC(=O)N2CCN(c3ncc(C(F)(F)F)cc3Cl)CC2)c(=O)c2ccccc12	inactive: -0.623%	
CCOC(=O)c1sc(NC(=O)c2cc(-c3ccccc3)nc3ccccc23)c(C#N)c1C	inactive: -1.11%	
O=C(CNc1ccc(C(F)(F)F)cc1)Nc1cccc(S(=O)(=O)N2CCCC2)c1	inactive: -0.726%	
CC(C)N(Cc1ccccc1)C(=O)COC(=O)c1cnc(Cl)c(Cl)c1	inactive: -3.98%	
Cc1ccc(S(=O)(=O)c2c(C(=O)c3ccccc3)cnc3cc4c(cc23)OCCO4)cc1	inactive: -0.498%	
Cc1ccccc1N1CCN(C2CCCN(C(=O)c3cnsn3)C2)CC1 (stereo not drawn)	inactive: 2.18%	
CCCCOc1ccc(/C=N/Nc2cc(N3CCOCC3)nc(C)n2)cc1	inactive: -3.37%	
CCC(C)NC(=O)CN1C(=O)CSc2ccc(S(=O)(=O)N3CCCC3)cc21 (stereo not drawn)	inactive: 0.925%	
COc1ccc(-c2cn(CCCOCc3ccccc3)nn2)cc1	inactive: 3.13%	
COc1ccc(NS(=O)(=O)c2cn(C)cn2)cc1Cl	inactive: 0.0459%	
